# According to the antibiotic and cytotoxicity screens of Wong et al. (2023):
# Some of the results follow.
# System: HSkMC (human skeletal muscle cells)
# Experiment: cytotoxicity call (relative viability < 0.9)
# Settings: 10 µM
row,Structure (SMILES),cytotoxicity call
1,C[C@H](O)C#Cc1cnc2c(c1)C(=O)N([C@@H](C)CO)C[C@@H](C)[C@@H](CN(C)C(=O)CN1CCOCC1)O2,inactive
2,C[C@@H]1CN([C@@H](C)CO)C(=O)c2cccc(NC(=O)c3nc4ccccc4s3)c2O[C@@H]1CN(C)C(=O)Nc1ccc(F)cc1,inactive
3,C[C@H]1CN([C@@H](C)CO)C(=O)c2cc(C#CC3(O)CCCC3)cnc2O[C@H]1CN(C)C(=O)Cc1ccncc1,inactive
4,Nc1nc(=O)c2[nH]c(=O)cnc2[nH]1,inactive
5,Cc1ccc(S(=O)(=O)N2C[C@@H](O)COC[C@@H]3O[C@@H](CC(=O)NCc4ccc(Cl)c(Cl)c4)CC[C@H]32)cc1,inactive
6,C[C@@H]1CN([C@@H](C)CO)C(=O)c2cc(NC(=O)Cc3ccccc3)ccc2O[C@@H](C)CCCCO[C@@H]1CN(C)C(=O)Cc1ccccc1,inactive
7,COc1cccc(C#Cc2cnc3c(c2)C(=O)N([C@@H](C)CO)C[C@H](C)[C@@H](CN(C)C(=O)C2CCOCC2)O3)c1,inactive
8,CCOc1ccc2ccccc2c1C(=O)NC1C(=O)N2C1SC(C)(C)C2C(=O)[O-].[Na+] (stereo not given),inactive
9,Cc1ccc(S(=O)(=O)N(C)C[C@H]2Oc3ccc(NC(=O)c4ccncc4)cc3CC(=O)N([C@H](C)CO)C[C@H]2C)cc1,inactive
10,C[C@@H]1CCCCO[C@H](CN(C)Cc2ccc(Cl)c(Cl)c2)[C@H](C)CN([C@@H](C)CO)C(=O)c2cc(NS(=O)(=O)c3ccccc3)ccc2O1,active
11,CCCN(C)C[C@@H]1OCCCC[C@@H](C)Oc2ccc(NC(=O)C3CCCCC3)cc2C(=O)N([C@H](C)CO)C[C@@H]1C,inactive
12,Cc1noc(C)c1S(=O)(=O)Nc1ccc2c(c1)C(=O)N([C@@H](C)CO)C[C@@H](C)[C@H](CN(C)C(=O)Nc1ccc3c(c1)OCO3)O2,inactive
13,Cc1ccc(S(=O)(=O)Nc2ccc3c(c2)C(=O)N([C@H](C)CO)C[C@@H](C)[C@@H](CN(C)C(=O)Nc2cccc4ccccc24)O3)cc1,inactive
14,O=C(N[C@H]1CC[C@@H](CC(=O)N2CCOCC2)O[C@H]1CO)c1ccccn1,inactive
15,C[C@H](CO)N1C[C@H](C)[C@@H](CN(C)Cc2ccc(-c3ccccc3)cc2)Oc2ccc(NC(=O)Nc3ccc4c(c3)OCO4)cc2C1=O,inactive
16,C[C@@H]1CN([C@H](C)CO)C(=O)c2cc(NC(=O)Cc3ccccc3)ccc2O[C@@H](C)CCCCO[C@@H]1CN(C)Cc1ccccc1,inactive
17,C[C@H]1CCCCO[C@H](CN(C)Cc2ccc3c(c2)OCO3)[C@@H](C)CN([C@@H](C)CO)C(=O)c2cc(NC(=O)NC3CCCCC3)ccc2O1,inactive
18,C[C@@H]1CCCCO[C@@H](CN(C)Cc2ccc3c(c2)OCO3)[C@@H](C)CN([C@@H](C)CO)C(=O)c2cc(NC(=O)c3ccccc3)ccc2O1,inactive
19,C[C@@H]1CN([C@H](C)CO)C(=O)c2cccc(NS(=O)(=O)c3cccs3)c2O[C@@H]1CN(C)Cc1ccc(-c2ccccc2)cc1,inactive
20,O=C(C[C@@H]1CC[C@H]2[C@@H](COC[C@@H](O)CN2S(=O)(=O)c2ccccc2)O1)N[C@H]1CCN(Cc2ccccc2)C1,inactive

row,Structure (SMILES),cytotoxicity call
1,C[C@H]1CN([C@@H](C)CO)C(=O)c2cc(NS(=O)(=O)c3cn(C)cn3)ccc2O[C@H]1CN(C)Cc1ccncc1,inactive
2,COC(=O)[C@@H](Cc1ccc(-n2cc(C(=O)NO)nn2)cc1)N1CC2=CC(=O)[C@@H](C3CC3)[C@@H]2[C@H]1[C@H](O)Cc1ccccc1,inactive
3,C[C@@H]1CN([C@H](C)CO)C(=O)c2cc(NS(=O)(=O)c3ccc(Cl)cc3)ccc2O[C@@H]1CN(C)Cc1ccc(Oc2ccccc2)cc1,active
4,C=c1cc(C)ccc1=C1NN=C(NC(C)=O)O1,inactive
5,CC(C)NC(=O)Nc1ccc2c(c1)C(=O)N([C@@H](C)CO)C[C@@H](C)[C@@H](CN(C)Cc1ccc(Oc3ccccc3)cc1)O2,inactive
6,C[C@@H]1O[C@H](O[C@@H]2[C@H](O)C[C@@]3(C)[C@@H](CC[C@]4(C)[C@H]3CC=C3[C@H]5CC(C)(C)CC[C@@]5(C(=O)O[C@H]5O[C@@H](C)[C@@H](O)[C@H](O[C@H]6OC[C@@H](O)[C@@H](O)[C@@H]6O)[C@H]5O[C@@H]5O[C@H](C)[C@H](O)[C@H](O[C@@H]6OC[C@H](O)[C@H](O[C@@H]7O[C@H](C)[C@@H](O)[C@H](O)[C@@H]7O)[C@H]6O)[C@H]5O)[C@@H](O)C[C@@]34C)[C@]2(C)CO)[C@@H](O)[C@H](O[C@H]2OC[C@@H](O)[C@@H](O[C@H]3OC[C@@H](O[C@H]4OC[C@@](O)(CO)[C@@H]4O)[C@@H](O)[C@@H]3O)[C@@H]2O)[C@@H]1O,inactive
7,COc1ccc2c3c(n(c2c1)C)[C@H](CO)N(C[C@]13CCN(CC1)Cc1cccc(c1)F)C(=O)Nc1ccc(cc1)F,inactive
8,COc1ccccc1-c1ccc2c(c1)O[C@H](CN(C)CC1CCOCC1)[C@@H](C)CN([C@H](C)CO)S2(=O)=O,inactive
9,C[C@@H]1CN([C@H](C)CO)C(=O)c2cc(NC(=O)c3ccncc3)ccc2O[C@@H](C)CCCCO[C@H]1CN(C)Cc1ccc(C(F)(F)F)cc1,inactive
10,O=C(C[C@H]1CC[C@H](NC(=O)CN2CCOCC2)[C@@H](CO)O1)NC1CCC1,inactive
11,COc1ccc([C@@H]2C/C=C\C[C@@H](c3cccc(Cl)c3)NC(=O)[C@@H](c3ccccc3)CC(=O)N2)c(OC)c1,inactive
12,C[C@@H]1CN([C@H](C)CO)C(=O)c2cc(NC(=O)Nc3ccc(C(F)(F)F)cc3)ccc2O[C@@H]1CN(C)CC1CCCCC1,active
13,COc1ccc(CN(C)C[C@@H]2OCCCC[C@H](C)Oc3ccc(NC(=O)NC4CCCCC4)cc3C(=O)N([C@H](C)CO)C[C@H]2C)cc1,inactive
14,COc1ccc2c3c([nH]c2c1)[C@H](CO)N(C[C@]13CN(C1)S(=O)(=O)c1ccccc1)C(=O)c1cnccn1,inactive
15,C[C@H]1CN([C@@H](C)CO)C(=O)c2cccc(NC(=O)CCCCCC(=O)Nc3ccccc3N)c2O[C@@H]1CN(C)CC1CCCCC1,inactive
16,C[C@@H]1CN([C@H](C)CO)C(=O)Cc2cc(NC(=O)Nc3ccc(C(F)(F)F)cc3)ccc2O[C@H]1CN(C)Cc1ccc(-c2ccccc2)cc1,active
17,Cc1ccc(S(=O)(=O)N(C)C[C@H]2Oc3c(NC(=O)Nc4cccc5ccccc45)cccc3C(=O)N([C@H](C)CO)C[C@@H]2C)cc1,inactive
18,Cl.NC1C(O)OC(CO)C(O)C1O (stereo not given),inactive
19,C[C@H](CO)N1C[C@H](C)[C@@H](CN(C)C(=O)Nc2ccccc2)OCCCC[C@H](C)Oc2ccc(NC(=O)Nc3ccc(F)cc3)cc2C1=O,inactive
20,CCS(=O)(=O)Nc1ccc2c(c1)C(=O)N(C)[C@@H]1CC[C@H](CC(=O)NCc3ccccc3F)O[C@@H]1CO2,inactive
